Measured values published in PubChem BioAssay AID902 (National Center for Advancing Translational Sciences (NCATS), 2007).
Out of some 130,000 compounds screened, about 1,900 (1.5%) were called active. Inconclusive results, whose numbers are uncertain, are shown with a selection of clear calls. The call rests on the fitted dose curve; in most records, active means well fitted cell-killing curve with a large enough effect; inconclusive means small, poorly fitted or top-dose-only effect; inactive means no such curve, though single readings can be large or run the other way. A potency beside an inconclusive call is a rough fit, not a confirmed value.

Experiment: qHTS Screen for Compounds that Selectively Target Cancer Cells with p53 Mutations: Cytotoxicity of p53ts Cells at the Nonpermissive Temperature; further: nearly all actives have a fitted effect of over 55% in size
Settings: H1299-p53A138V viability at 39C, ATP luminescence, 24 h; activity change, negative = cell killing: at 46.1 µM (top of the series)
On the % scale 0 is the no-effect control and ±100 the full control effect; potency means the concentration at half of the fitted maximal effect; tags describe the fitted curve by direction and shape.

Row | SMILES | Potency | activity change, negative = cell killing
1 | CCC(C)Cn1c(/C=C/c2ccccc2)nc2ccccc21 (stereo not given) | active: 12.6 µM | –
2 | Fc1ccccc1CSc1nc2ncccc2[nH]1 | inconclusive: 12.6 µM [cytotoxic, single point] | –
3 | O=C(O)C12CC3(C(=O)O)CC(C(=O)O)(CC(C(=O)O)(C1)C3=O)C2=O | – | inactive: 2.82% [at 9.22 µM]
4 | COc1cc2c(C#N)c(N3CCc4ccccc4C3)nc(N)c2c(N)n1 | inconclusive: 15.8 µM [cytotoxic, single point] | –
5 | CCOc1ccc(C(=O)NCCc2sc(-c3ccc(OC)c(OC)c3)nc2C)cc1 | inconclusive: 0.0316 µM [cytotoxic, full curve, poor fit] | –
6 | CC(C)=CCc1c2c(c3occ(-c4ccc(O)cc4)c(=O)c3c1O)C=CC(C)(C)O2 | inconclusive: 31.6 µM [cytotoxic, single point] | –
7 | CCN1CCCC1CNC(=O)C1CCN(Cc2nc(-c3cccc(Br)c3)oc2C)CC1 (stereo not given) | inconclusive: 20 µM [cytotoxic, single point] | –
8 | COc1ccccc1CNc1cc(-c2ccccc2OC)ncn1 | inconclusive: 3.16 µM [cytotoxic, single point] | –
9 | Cc1ccc(-n2ncc3c(=O)n(CC(=O)N4CCCCCC4)cnc32)cc1 | inconclusive: 10 µM [cytotoxic, partial curve, poor fit] | –
10 | COCCn1c(N)c(C(=O)OCc2ccccc2)c2nc3ccccc3nc21 | – | inactive: -5.85%
11 | COc1ccc(-n2nc(C(=O)Nc3cc(OC)c(OC)c(OC)c3)c(=O)n(C)c2=O)cc1 | inconclusive: 1.58 µM [cytotoxic, partial curve] | –
12 | Nc1ncnc2oc(-c3ccco3)c(-c3ccco3)c12 | – | inactive: 1.63%
13 | COc1cc2[nH]c(=S)nc(NCC3CCCO3)c2cc1OC (stereo not given) | – | inactive: -4.64%
14 | Cc1nn(-c2ccccc2)c(-n2cccc2)c1C(=O)NCCc1ccc(Cl)cc1 | inconclusive: 15.8 µM [cytotoxic, partial curve] | –
15 | O=C(COc1ccc(Br)cc1Cl)Nc1ncn[nH]1 | inconclusive: 1.26 µM [cytotoxic, full curve, poor fit] | –
16 | c1ccc2c(c1)CCN(c1nc3cc4c(cc3s1)OCO4)C2 | inconclusive: 10 µM [cytotoxic, partial curve] | –
17 | Cc1ccc(NC(=O)CSc2nccn2Cc2ccco2)cc1Cl | inconclusive: 20 µM [cytotoxic, partial curve, poor fit] | –
18 | O=c1ccc2cc(S(=O)(=O)NCc3ccc(Br)cc3)ccc2[nH]1 | – | inconclusive: -31.1% [cytotoxic]
19 | CCC(=O)N1CCc2cc(S(=O)(=O)NC(CC(C)C)C(=O)NCCc3cccc(C)c3)ccc21 (stereo not given) | inconclusive: 3.16 µM [cytotoxic, partial curve, poor fit] | –
20 | COc1cccc(NC(=O)CSCc2cc(=O)c3ccc(C)c(C)c3[nH]2)c1 | inconclusive: 0.794 µM [cytotoxic, full curve, poor fit] | –
21 | COc1cccc(-c2cc(C(=O)N3CCCCC3C)no2)c1 (stereo not given) | inconclusive: 20 µM [cytotoxic, single point] | –
22 | O=C(Nc1cccnc1)c1ccc(Oc2ccccc2)cc1 | inconclusive: 12.6 µM [cytotoxic, partial curve] | –

Row | SMILES | Potency | activity change, negative = cell killing
23 | O=C(CCCCn1c(=O)c2ccccc2n(Cc2ccccc2Cl)c1=O)NCc1ccc2c(c1)OCO2 | – | inactive: -8.04%
24 | Cc1ccc(-n2c(C)cc(C(=O)CSc3nncs3)c2C)cc1 | inconclusive: 12.6 µM [cytotoxic, partial curve] | –
25 | C=CCCCC | – | inactive: -16.2%
26 | CCn1c(=O)c2cc(C(=O)NCCCOC)sc2c2ccccc21 | inconclusive: 5.01 µM [cytotoxic, partial curve] | –
27 | CC(C)n1c(-c2ccc(N(C)C)cc2)nc2ccccc21 | inconclusive: 10 µM [cytotoxic, single point] | –
28 | Cc1nn2c(=O)cc(COC(=O)c3cccc(NC(=O)COc4ccccc4Cl)c3)nc2s1 | active: 12.6 µM | –
29 | CN(C)c1ccc(-c2nccc(NCc3ccccc3)n2)cc1 | inconclusive: 12.6 µM [cytotoxic, partial curve] | –
30 | CCCOc1ccc(-c2nnc(-c3cccs3)o2)cc1 | inconclusive: 3.55 µM [cytotoxic, partial curve, poor fit] | –
31 | COc1cccc2c1C(=N)c1c(O)c3c(c(O)c1C2=O)C[C@](O)(C(C)=O)C[C@@H]3O[C@H]1C[C@H](N)[C@@H](O)[C@H](C)O1 | inconclusive: 3.16 µM [cytotoxic, single point] | –
32 | COc1ccc(NC(=O)Cn2c(=O)n(-c3ccccc3)c(=O)c3c4c(sc32)CCCC4)c(OC)c1 | inconclusive: 25.1 µM [cytotoxic, single point] | –
33 | COc1cc2c(cc1OC)-c1cc(OCc3cccnc3)nc(=O)n1CC2 | – | inactive: 4.1%
34 | O=C1CCCc2cc(S(=O)(=O)N3CCCC(C(=O)Nc4ccc(F)c(Cl)c4)C3)ccc2N1 (stereo not given) | – | inactive: -11.7%
35 | CSc1cccc(Nc2cc(C(=O)NCCc3ccc(Cl)cc3)c3ccccc3n2)c1 | inconclusive: 0.158 µM [cytotoxic, full curve] | –
36 | CCCNC(=O)OC[C@H]1O[C@@H](CCO/N=C2/[C@H]3O[C@@H]3[C@@H](O)[C@H]3[C@H]2CCn2c(=O)n(-c4ccccc4)c(=O)n23)C=C[C@@H]1Oc1ccc(OC)cc1 | – | inactive: 2.17% [at 9.22 µM]
37 | CC1CN(C(=O)N2CCC(C(=O)N3CCN(c4ccccc4)CC3)CC2)c2cc(Cl)ccc2O1 (stereo not given) | inconclusive: 31.6 µM [cytotoxic, single point] | –
38 | CCOc1ccc2nc(N3CCC(C(=O)Nc4ccccc4CC)CC3)sc2c1 | inconclusive: 20 µM [cytotoxic, single point] | –
39 | CC(=O)Nc1ccc(S(=O)(=O)N2CCC(c3nnc(-c4ccc(C)cc4)o3)CC2)cc1 | inconclusive: 10 µM [cytotoxic, partial curve] | –
40 | O=C(Nc1ccc2c(c1)OCO2)c1ccc(Br)s1 | inconclusive: 20 µM [cytotoxic, single point] | –
41 | COC(=O)[C@@]1(Cc2ccc(F)cc2)[C@H]2c3cc(C(=O)N4CCCC4)n(Cc4cc(F)cc5c4OCOC5)c3C[C@H]2CN1C(=O)c1ccccc1 | – | inactive: 4.82%
42 | COc1cccc(CNC(=O)C(C)n2ncn3cccc3c2=O)c1OC (stereo not given) | inconclusive: 10 µM [cytotoxic, partial curve] | –
43 | Cc1ccc(-n2ncc3c(N4CCC(C(N)=O)CC4)ncnc32)cc1 | inconclusive: 0.0158 µM [cytotoxic, full curve, poor fit] | –
44 | Cc1ccc(Nc2c(-c3ccsc3)nc3cccc(C)n23)cc1 | inconclusive: 15.8 µM [cytotoxic, single point] | –

Row | SMILES | Potency | activity change, negative = cell killing
45 | CS(=O)(=O)c1oc(-c2ccc(F)cc2)nc1S(=O)(=O)c1ccc(Cl)cc1 | active: 3.98 µM | –
46 | COc1ccc(-n2c(=O)c3c(C)c(C)sc3n(CC(=O)NCc3ccc(C)cc3)c2=O)c(OC)c1 | – | inactive: -10.9%
47 | CCOc1ccc(OC(=O)c2cn(-c3cccc(OC)c3)c(=O)c3ccccc23)cc1 | inconclusive: 0.01 µM [cytotoxic, full curve] | –
48 | CC1CCN(C(=O)c2cc3c(=O)n(C)c4ccccc4c3s2)CC1 | inconclusive: 31.6 µM [cytotoxic, single point] | –
49 | Cc1ccc(NC(=O)c2ccc3oc(=O)c(S(=O)(=O)c4ccccc4)cc3c2)cc1C | inconclusive: 1 µM [cytotoxic, partial curve] | –
50 | CC(=O)c1cccc(NC(=O)Nc2ccc(C(=O)N3CCCC3)cc2)c1 | inconclusive: 10 µM [cytotoxic, partial curve] | –
51 | Cn1c(=O)c2c(nc(NCc3ccco3)n2C/C=C/c2ccccc2)n(C)c1=O | – | inactive: -20.4%
52 | COc1ccccc1-c1ccc2ncnc(NCc3ccccc3)c2c1 | – | inactive: 0.825%
53 | COc1ccc(NC(=O)Cn2c(=O)n(Cc3ccco3)c(=O)c3cc(OC)c(OC)cc32)cc1 | inconclusive: 25.1 µM [cytotoxic, single point] | –
54 | O=C(c1ccc2c(c1)CCN2S(=O)(=O)c1ccccc1)N1CCN(c2cccc(Cl)c2)CC1 | inconclusive: 31.6 µM [cytotoxic, single point] | –
55 | Cc1cccc(Nc2c(-c3cccs3)nc3nc(C)cc(C)n23)c1 | inconclusive: 6.31 µM [cytotoxic, partial curve] | –
56 | CCOC(=O)c1c(C)nc(-c2ccccc2)nc1N | inconclusive: 15.8 µM [cytotoxic, single point] | –
57 | O=c1nc2c(-c3ccc(F)cc3Cl)n[nH]n2c2ccccc12 | inconclusive: 7.94 µM [cytotoxic, partial curve] | –
58 | NCC[C@H]1CCC[C@H](CCN)N1 | – | inactive: -12.8%
59 | COC(=O)c1oc2ccc(OC)cc2c1N | inconclusive: 15.8 µM [cytotoxic, partial curve] | –
60 | COC(=O)c1cccc(Nc2c(-c3ccc(OC)cc3)nc3nc[nH]n23)c1 | inconclusive: 20 µM [cytotoxic, partial curve] | –
61 | O=S1(=O)C=C(Sc2nc3ccccc3s2)c2ccccc21 | inconclusive: 25.1 µM [cytotoxic, single point] | –
62 | O=c1c(N2CCN(c3cccc(Cl)c3)CC2)csc2ccccc12 | inconclusive: 10 µM [cytotoxic, partial curve, poor fit] | –
63 | CCc1nn(CC(=O)NCc2ccccc2Cl)c(=O)c2cc3ccccc3n12 | inconclusive: 31.6 µM [cytotoxic, single point] | –
64 | CCOc1ccccc1C(=O)Nc1cc(Cl)ccc1O | inconclusive: 31.6 µM [cytotoxic, single point] | –
65 | O=C(Nc1nc2ccc(S(=O)(=O)N3CCCC3)cc2s1)c1ccc(F)cc1 | inconclusive: 3.16 µM [cytotoxic, partial curve, poor fit] | –
